The whole screen tested about 320,000 compounds, of which about 7,600 (2.4%) were called active. The shares of active, inactive and inconclusive entries below differ from those in the screen. Calls come from the whole dose curve; as a rule, active = well fitted activation curve with a large enough effect; inconclusive = small, poorly fitted or top-dose-only effect; inactive = no such curve, though single readings can be large or run the other way. A potency beside an inconclusive call is a rough fit, not a confirmed value.
Assay: qHTS Assay for NPC1 Promoter Activators; note: nearly all actives have a fitted effect of over 60% in size;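 for activation: reporter is driven by a mutant NPC1 promoter; % of control where 0% means no effect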
Details: Huh7 NPC1 promoter luciferase reporter, 24 h; series mostly up to 9.22 µM; activation: at the top concentration
Procedure, shortened: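 Readout is luciferase luminescence, reflecting NPC1 promoter activation in stably transfected Huh7 cells after 24 h compound exposure at 37 °C in reduced-serum medium with 10% FBS.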
Potency is the fitted concentration of half-maximal effect; tags give direction and shape of the fitted curve.

Potency, inconclusive:
COc1ccc(NC(=S)Nc2cc(C)[nH]n2)cc1Cl 6.31 µM [activator, single point]
Cc1ccc(C(=O)NCCc2ccccc2)cc1 0.0891 µM [activator, full curve, poor fit]
O=C(NNC(=S)Nc1ccccc1)c1cccs1 3.16 µM [activator, partial curve]
Cc1cc(C)cc(N(CC(=O)NC2CCCC2)C(=O)CNC(=O)c2ccco2)c1 0.794 µM [activator, single point]
CC(C)Cn1c(/C=C/c2ccccc2)nc2ccccc21 2.82 µM [activator, partial curve]
Cc1cc(-c2ccccc2)nc(N/N=C/c2ccccc2)n1 5.62 µM [activator, single point]
COc1ccc(OCc2cc(C(=O)NCC(C)Oc3cccnc3)no2)c(Cl)c1 (stereo not given) 3.98 µM [activator, partial curve]
CCOC(=O)c1c(C)nc(-c2ccccc2)nc1NC(=O)CC 3.16 µM [activator, single point]
Cc1cc(C)nc(Nc2n[nH]c(-c3ccccc3Cl)n2)n1 4.47 µM [activator, single point]
Cc1ccc(NC(=O)c2sccc2C)cc1[N+](=O)[O-] 2.82 µM [activator, partial curve]
Nc1ccccc1SCC(=O)Nc1ccc2c(c1)OCO2 3.98 µM [activator, partial curve]
CCc1ccc(-c2csc(NC(=O)Oc3ccccc3)n2)cc1 2.82 µM [activator, partial curve]
CC(C)(CNC(=O)c1ccc(-c2ccccc2Cl)o1)N1CCOCC1 2.82 µM [activator, partial curve]
CC(C)OCCOc1ccc2oc(-c3ccco3)cc(=O)c2c1 3.16 µM [activator, partial curve]
CNc1cc(CSc2ccc(Cl)cc2)nc(C)n1 3.16 µM [activator, partial curve]
CCCn1cnc2c(cnn2-c2ccc(F)cc2)c1=O 2.24 µM [activator, partial curve]
NS(=O)(=O)c1ccc(CCNC(=O)CSCc2ccccc2)cc1 1.26 µM [activator, single point]
CN(C(=O)c1ccc2c(Cl)c3c(nc2c1)CCC3)c1ccccc1 3.16 µM [activator, single point]
CCc1ccc(NC2=NCC(c3ccccc3)S2)cc1 (stereo not given) 3.55 µM [activator, single point]
COc1ccc(Cl)cc1-c1nc(-c2ccc(Br)o2)no1 5.62 µM [activator, single point]
COc1ccc(-c2cn3cccnc3n2)cc1 3.16 µM [activator, partial curve]
CC(C)Cc1cc(C(=O)Nc2ccc(Br)cc2)no1 5.62 µM [activator, single point]
Cn1c(=O)c(C(=O)NC2CCCCCCC2)c(O)c2ccccc21 3.98 µM [activator, partial curve]
CC1(c2ccc([N+](=O)[O-])cc2)Nc2ccccc2S1 (stereo not given) 2.82 µM [activator, partial curve]
COc1cccc(/C=N/Nc2nnc3c(n2)[nH]c2ccccc23)c1OC 2.82 µM [activator, partial curve]
Cc1nn(-c2ccccc2)c(N)c1N=Nc1ccc2ccccc2c1 5.62 µM [activator, single point]
O=C(NC(=S)NC1CCCC1)c1ccccc1 3.55 µM [activator, partial curve]
COCCC1CCCCN1C(=O)c1cc(COc2cccc(C(C)=O)c2)on1 (stereo not given) 5.62 µM [activator, single point]
O=c1c2ccccc2[nH]c(=S)n1CCc1ccccc1 2.82 µM [activator, partial curve]
NC(=O)C1CC(=O)N(c2ccc(OCC(=O)Nc3ccccc3F)cc2)C1 (stereo not given) 3.55 µM [activator, partial curve]
CCC(=O)NCCc1nc2cc(NC(=O)c3ccc(OC)cc3)ccc2n1C 3.55 µM [activator, partial curve]
O=C(NCCOc1ccccc1)c1cncc(Br)c1 3.98 µM [activator, single point]
Cc1cccc(NC(=O)c2cccs2)n1 3.16 µM [activator, partial curve]
O=C(CSc1ccccc1F)Nc1ccc(N2CCOCC2)cc1 4.47 µM [activator, partial curve]
CCOC(=O)N1CCN(C(=O)CCSc2ccccc2)CC1 3.55 µM [activator, partial curve]
CCn1nccc1C(=O)Nc1ccc(C(=O)OC(C)C)cc1 3.16 µM [activator, single point]
CN1CCN(c2ccc(NC(=O)Cc3ccccc3)cc2)CC1 2.82 µM [activator, partial curve]
C=C(C)COc1ccc2c(C)c(CC(=O)OC)c(=O)oc2c1C 5.62 µM [activator, single point]
CN1CCOc2ccc(S(=O)(=O)N3CCN(S(=O)(=O)c4c(F)cccc4F)CC3)cc21 3.55 µM [activator, partial curve]
CCN(CC)c1ccc2cc(-c3nnc(-c4ccncc4)o3)c(=O)oc2c1 2.82 µM [activator, partial curve]

Potency, active:
c1cncc(-c2noc(-c3ccco3)n2)c1 3.16 µM
CN1CCN(c2ccc(NC(=O)CSc3ccccc3)cc2F)CC1 1.78 µM
COc1ccc(C(=O)c2sc(Nc3ccccc3F)nc2N)cc1 2.82 µM
O=C(/C=C/c1ccc2c(c1)OCO2)Nc1nc2ccc(F)cc2s1 1.78 µM
C#CCN1C(=O)S/C(=C\c2ccc(-c3ccc(C(=O)O)cc3C)o2)C1=O 1.12 µM
Cc1cccc(C)c1OCc1cc(C(=O)N2CCN(c3ccc(F)cc3)CC2)no1 0.631 µM
N#C/C(=C\c1cccnc1)c1nc2c(s1)CCCC2 3.55 µM
Cc1ccn2cc(-c3ccc(NC(=O)c4ccco4)cc3)nc2c1 3.16 µM
O=C(O)c1cccc(NC2=Nc3cccc4cccc2c34)c1 0.447 µM
CCn1cnc2cc(NCc3ccc(Cl)cc3)ccc21 2.82 µM
N=C1S/C(=C\c2cn[nH]c2-c2ccc(F)cc2)C(=O)N1c1ccccc1F 3.16 µM
CC(=O)Nc1nc(COc2ccc3ccccc3c2)cs1 2.82 µM
CCOc1ccc(NC(=S)NC(=O)c2ccco2)cc1 2 µM
Cc1c(NC(=O)c2ccccc2N)cccc1C(=O)O 1.26 µM
COc1ccc(-c2coc3cc(OC4OC(CO)C(O)C(O)C4O)ccc3c2=O)cc1 (stereo not given) 1.58 µM
O=C1C(C=Nc2ccc(F)cc2)=C(O)c2ccccc21 0.355 µM
CCCCn1cnc2c(oc3nc4c(cc32)CCCC4)c1=O 0.631 µM
CC(C)(C)c1csc(NC2=NS(=O)(=O)c3ccccc32)n1 1.41 µM

activation, inactive:
O=C(O)C(Cc1ccc(Cl)cc1)NS(=O)(=O)c1ccc(Cl)cc1 (stereo not given) -6.44%
CCC(C)(C)NC(=O)C(c1ccccc1Cl)N(Cc1cccnc1)C(=O)CCC(=O)Nc1cc(C)on1 (stereo not given) 1.1%
O=C(COC(=O)COc1ccc(Cl)cc1)Nc1ccc(N2CCOCC2)cc1 -0.467%
Cc1ncsc1CCC(=O)N1CCCC(Nc2ccc(F)c(F)c2)C1 (stereo not given) -0.0636%
CCC(C)C(NC(=O)c1ccc(Cl)cc1Cl)C(=O)O (stereo not given) 0.935%
Cn1c(N)c(C(=O)COC(=O)c2ccc(Cl)c(S(=O)(=O)N3CCCC3)c2)c(=O)n(C)c1=O 1.6%
COC(=O)CSc1nnc(-c2sc3cc(OC)ccc3c2Cl)n1C 0.617%
NC(=S)Nc1nc2ccccc2s1 11%
CC(C)NC(=S)N/N=C1\CCCc2ccccc21 -0.834%
N#C/C(=N\Nc1cccc(F)c1)C(=O)C1CC1 1.49%
O=C1CC(c2ccc(F)cc2)Sc2nc(C34CC5CC(CC(C5)C3)C4)nn21 (stereo not given) 0.236%
CC(Oc1ccc(Br)cc1)C(=O)NCC(c1cccs1)N1CCOCC1 (stereo not given) 0.21%
O=C(CCC(=O)c1cccs1)NC(c1ccccc1)c1ccccc1 -0.699%
COc1ccc(C(=O)Nc2ccc(N3CCCC3)cc2)cc1Br 16.8%
Cc1ccc(CNS(=O)(=O)c2cc3c4c(c2)C(C)C(=O)N4CCC3)cc1 (stereo not given) -5.39%
COc1ccc(CCc2nnc(CCC(=O)NCCc3ncccc3C)o2)cc1 -0.452%
COc1ccccc1NC(=O)N1CCN(c2ccnc3cc(Cl)ccc23)CC1 -0.355%
Cc1cccc(Oc2ccc(Cl)cc2N)c1 14%
CCC(C)[C@H](NC(=O)[C@@H]1CSC2c3ccccc3C(=O)N21)C(=O)NCC1CCCO1 (stereo not given in full) -1.8%
COc1ccc(NC(=O)COC(=O)C2CC(=O)N(CCc3ccc(OC)c(OC)c3)C2)cc1Cl (stereo not given) 1.13%
CN1CC(c2ccc(C#N)cc2)C2(COc3ccccc3C2=O)C12C(=O)Nc1ccccc12 (stereo not given) -3.61%
Cc1ccsc1C(=O)N1CCc2ccccc2C1 5.31%
